Experimental data reported in a collection of fitness landscapes (doi:10.1126/science.1257360).
This is one part of the list.

B1: PhoQ; a variant is named by its letters at X, in order, P23837 (parent)
chain: MKKLLRLFFPLSLRVRFLLATAAVVLVLSLAYGMVALIGYSVSFDKTTFRLLRGESNLFYTLAKWENNKLHVELPENIDKQSPTMTLIYDENGQLLWAQRDVPWLMKMIQPDWLKSNGFHEIEADVNDTSLLLSGDHSIQQQLQEVREDDDDAEMTHSVAVNVYPATSRMPKLTIVVVDTIPVELKSSYMVWSWFIYVLSANLLLVIPLLWVAAWWSLRPIEALAKEVRELEEHNRELLNPATTRELTSLVRNLNRLLKSERERYDKYRTTLTDLTHSLKTPLXXLQXXLRSLRSEKMSVSDAEPVMLEQISRISQQIGYYLHRASMRGGTLLSRELHPVAPLLDNLTSALNKVYQRKGVNISLDISPEISFVGEQNDFVEVMGNVLDNACKYCLEFVEISARQTDEHLYIVVEDDGPGIPLSKREVIFDRGQRVDTLRPGQGVGLAVAREITEQYEGKIVAGESMLGGARMEVIFGRQHSAPKDE

Variants of: B1
Experiment: enrichment ratio after two sorts for PhoP signalling (ratio (wild type AVST 3.29)); higher = more functional
Details: with PhoP (E. coli)

Row | Variant | enrichment ratio
1 | VWFK | ≤ 0.25
2 | DAWY | ≤ 0.25
3 | TQPK | ≤ 0.25
4 | CSSW | ≤ 0.25
5 | HEEG | ≤ 0.25
6 | HFTA | ≤ 0.25
7 | YPWE | ≤ 0.25
8 | QCLP | ≤ 0.25
9 | YNYY | ≤ 0.25
10 | MHHS | ≤ 0.25
11 | TNMN | ≤ 0.25
12 | GDWS | ≤ 0.25
13 | YMCS | ≤ 0.25
14 | RVYY | ≤ 0.25
15 | EDEP | ≤ 0.25
16 | SDSG | 0.62
17 | ATTQ | 2.71
18 | WIQK | ≤ 0.25
19 | MPAP | ≤ 0.25
20 | LFIV | ≤ 0.25
21 | MDAP | ≤ 0.25
22 | MPVE | ≤ 0.25
23 | TVGS | 8.38
24 | KFTS | ≤ 0.25
25 | DMMV | ≤ 0.25
26 | NAYI | ≤ 0.25

Row | Variant | enrichment ratio
27 | MSEF | ≤ 0.25
28 | FHDS | ≤ 0.25
29 | HPKP | ≤ 0.25
30 | WAQE | ≤ 0.25
31 | PPDC | ≤ 0.25
32 | QEEN | ≤ 0.25
33 | YRYD | ≤ 0.25
34 | IAYP | ≤ 0.25
35 | HISG | ≤ 0.25
36 | WYWF | ≤ 0.25
37 | LMGM | ≤ 0.25
38 | THCN | 4.64
39 | YKLP | ≤ 0.25
40 | LQQR | ≤ 0.25
41 | YVFW | ≤ 0.25
42 | VPTF | ≤ 0.25
43 | LITY | ≤ 0.25
44 | LPID | ≤ 0.25
45 | TSFG | 0.865
46 | ECFF | ≤ 0.25
47 | NHYK | ≤ 0.25
48 | LGKR | ≤ 0.25
49 | MKLL | 11.4
50 | PMMK | ≤ 0.25
51 | RSKQ | 0.493
52 | KVLG | ≤ 0.25

Row | Variant | enrichment ratio
53 | IYFA | ≤ 0.25
54 | TQCR | 6.42
55 | FSVH | ≤ 0.25
56 | KIVT | ≤ 0.25
57 | RPCW | ≤ 0.25
58 | KFSD | ≤ 0.25
59 | IQYI | ≤ 0.25
60 | WQPP | ≤ 0.25
61 | FYHS | ≤ 0.25
62 | QVRR | ≤ 0.25
63 | TDHC | ≤ 0.25
64 | DPGP | ≤ 0.25
65 | RGFM | ≤ 0.25
66 | FKCR | ≤ 0.25
67 | FLEF | ≤ 0.25
68 | KYFH | ≤ 0.25
69 | AIFL | ≤ 0.25
70 | ECQR | ≤ 0.25
71 | IPTS | ≤ 0.25
72 | FITR | ≤ 0.25
73 | FQFQ | ≤ 0.25
74 | PTQA | ≤ 0.25
75 | DLAQ | ≤ 0.25
76 | GVWD | ≤ 0.25
77 | LAQW | ≤ 0.25
78 | QIFD | ≤ 0.25

Row | Variant | enrichment ratio
79 | NPAI | ≤ 0.25
80 | VHQS | ≤ 0.25
81 | VVWW | ≤ 0.25
82 | MEQS | ≤ 0.25
83 | MRSM | ≤ 0.25
84 | MNLI | 6.91
85 | WGTP | ≤ 0.25
86 | EFLP | ≤ 0.25
87 | KAVT | ≤ 0.25
88 | TKGK | ≤ 0.25
89 | VQMK | ≤ 0.25
90 | QKDA | ≤ 0.25
91 | DNSV | ≤ 0.25
92 | DMFA | ≤ 0.25
93 | EWVF | ≤ 0.25
94 | KTCT | ≤ 0.25
95 | IFRY | ≤ 0.25
96 | IDYI | ≤ 0.25
97 | AVFP | ≤ 0.25
98 | WIRW | ≤ 0.25
99 | PRPI | ≤ 0.25
100 | QTGT | 7.74
101 | YWAR | ≤ 0.25
102 | LRDL | ≤ 0.25
103 | SVKM | ≤ 0.25
104 | KVRI | ≤ 0.25

Row | Variant | enrichment ratio
105 | RRDC | ≤ 0.25
106 | LHDN | ≤ 0.25
107 | WVGG | ≤ 0.25
108 | EKLN | ≤ 0.25
109 | YKRK | ≤ 0.25
110 | WLVQ | ≤ 0.25
111 | GDAT | 2.57
112 | DWRE | ≤ 0.25
113 | HCMY | ≤ 0.25
114 | IDCK | ≤ 0.25
115 | THTT | ≤ 0.25
116 | GCDY | ≤ 0.25
117 | VTMI | 3.77
118 | IGGC | ≤ 0.25
119 | HNCD | ≤ 0.25
120 | NDQV | ≤ 0.25
121 | THMA | 6.15
122 | YGMS | 0.302
123 | SKVD | ≤ 0.25
124 | VKNH | ≤ 0.25
125 | FRGG | ≤ 0.25
126 | VIQF | ≤ 0.25
127 | SMSV | 5.79
128 | WGLP | ≤ 0.25
129 | PTWT | ≤ 0.25
130 | SEGN | 3.18

Row | Variant | enrichment ratio
131 | RRVQ | ≤ 0.25
132 | ERAP | ≤ 0.25
133 | YQQT | ≤ 0.25
134 | YCQR | ≤ 0.25
135 | MSMY | 0.871
136 | NIPT | ≤ 0.25
137 | PSNG | ≤ 0.25
138 | MRVV | ≤ 0.25
139 | SRQI | ≤ 0.25
140 | ATGW | 7.81
141 | RVNR | ≤ 0.25
142 | ERNG | ≤ 0.25
143 | PVAY | ≤ 0.25
144 | TYHM | ≤ 0.25
145 | ISDQ | ≤ 0.25
146 | FCRP | ≤ 0.25
147 | TKVR | ≤ 0.25
148 | PEYV | ≤ 0.25
149 | WDHG | ≤ 0.25
150 | TAGC | 13.9
151 | NVRN | ≤ 0.25
152 | LWTM | 0.652
153 | PAQH | ≤ 0.25
